Source: PubChem BioAssay AID1347165 (National Center for Advancing Translational Sciences (NCATS), 2019)
Screen size: about 220,000 compounds; about 5,700 (2.6%) were called active. This list was built around the results that the source calls inconclusive (neither active nor inactive); the mix of calls is not that of the screen. The call rests on the fitted dose curve; in most records, active means well fitted inhibition curve with a large enough effect; inconclusive means small, poorly fitted or top-dose-only effect; inactive means no such curve, though single readings can be large or run the other way. A potency beside an inconclusive call is a rough fit, not a confirmed value.

biological target: Lysine-specific demethylase 5B (Homo sapiens) (UniProt Q9UGL1); test: Primary screen for KDM5B Histone Demethylases FDH-coupled qHTS; details: FDH-coupled NADH fluorescence (FDH is formaldehyde dehydrogenase); series mostly up to 57.7 µM; further: nearly all actives have a fitted effect of over 70% in size
Summary of the method: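 KDM5BΔAP (200 nM final) in 50 mM HEPES pH 7.5, 0.01% Tween-20 was preincubated 10 min at RT with compound over a concentration range. Substrate mix (H3K4me3 12.5 µM, α-KG 25 µM, Fe²⁺, ascorbate, NAD⁺, FDH) was added, and NADH fluorescence change over 30 min gave dose-response curves.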
Potency means the concentration at half of the fitted maximal effect; tags describe the fitted curve by direction and shape.

Sequence of UniProt Q9UGL1 (Q9UGL1 whole entry, looked up): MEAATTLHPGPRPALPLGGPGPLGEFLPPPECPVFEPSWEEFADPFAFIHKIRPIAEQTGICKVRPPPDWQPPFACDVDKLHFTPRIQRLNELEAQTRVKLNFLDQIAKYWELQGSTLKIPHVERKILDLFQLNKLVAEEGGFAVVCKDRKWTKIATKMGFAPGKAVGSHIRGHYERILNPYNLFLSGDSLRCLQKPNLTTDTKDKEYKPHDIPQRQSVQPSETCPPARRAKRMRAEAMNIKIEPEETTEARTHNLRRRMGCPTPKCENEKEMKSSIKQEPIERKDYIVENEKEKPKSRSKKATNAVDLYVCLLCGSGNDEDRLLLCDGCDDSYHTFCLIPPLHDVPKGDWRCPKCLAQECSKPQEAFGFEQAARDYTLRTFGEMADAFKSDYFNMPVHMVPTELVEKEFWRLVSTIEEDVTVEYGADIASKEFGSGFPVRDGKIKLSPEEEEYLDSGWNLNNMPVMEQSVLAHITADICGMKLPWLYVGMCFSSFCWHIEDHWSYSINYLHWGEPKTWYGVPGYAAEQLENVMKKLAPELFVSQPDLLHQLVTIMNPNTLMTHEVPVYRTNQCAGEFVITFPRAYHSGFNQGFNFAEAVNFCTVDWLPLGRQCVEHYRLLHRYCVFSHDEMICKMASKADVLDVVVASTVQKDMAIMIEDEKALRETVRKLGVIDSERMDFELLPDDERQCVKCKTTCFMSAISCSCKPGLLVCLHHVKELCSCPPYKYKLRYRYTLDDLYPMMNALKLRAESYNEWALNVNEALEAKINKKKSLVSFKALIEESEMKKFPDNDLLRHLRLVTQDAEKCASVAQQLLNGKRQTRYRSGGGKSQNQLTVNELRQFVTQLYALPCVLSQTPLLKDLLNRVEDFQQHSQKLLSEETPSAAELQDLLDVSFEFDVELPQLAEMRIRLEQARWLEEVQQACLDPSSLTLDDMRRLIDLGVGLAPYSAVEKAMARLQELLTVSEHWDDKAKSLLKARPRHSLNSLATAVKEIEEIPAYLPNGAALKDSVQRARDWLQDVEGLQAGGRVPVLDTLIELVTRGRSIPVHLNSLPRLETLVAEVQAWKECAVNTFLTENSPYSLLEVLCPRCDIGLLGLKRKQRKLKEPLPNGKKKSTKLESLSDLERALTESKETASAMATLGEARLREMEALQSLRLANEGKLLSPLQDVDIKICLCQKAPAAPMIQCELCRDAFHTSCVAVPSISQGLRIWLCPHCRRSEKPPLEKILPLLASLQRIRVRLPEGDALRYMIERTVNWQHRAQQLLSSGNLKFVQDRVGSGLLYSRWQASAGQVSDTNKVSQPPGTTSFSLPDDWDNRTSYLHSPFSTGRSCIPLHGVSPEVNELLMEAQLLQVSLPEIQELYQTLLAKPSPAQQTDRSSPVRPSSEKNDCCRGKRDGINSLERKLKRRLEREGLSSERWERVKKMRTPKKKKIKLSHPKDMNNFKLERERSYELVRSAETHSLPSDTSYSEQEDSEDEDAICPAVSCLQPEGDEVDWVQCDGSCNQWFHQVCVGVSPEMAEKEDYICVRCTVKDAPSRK

With `Cc1ccc(C)c(N2CCN(c3ccc4cc(S(=O)(=O)N5CCC(C)CC5)ccc4n3)CC2)c1` as the compound, how does the Potency read?
The Potency was inconclusive: 35.5 µM [inhibitor, single point].

Which Potency does the source give for `CCOc1ccc(C(=O)NCCc2sc(-c3ccc(OC)c(OC)c3)nc2C)cc1` here?
The Potency was inconclusive: 39.8 µM [inhibitor, partial curve, poor fit].

How did the Potency turn out when `COc1cccc(C(=O)/C(=C/c2cccnc2)c2nc3ccccc3o2)c1` was run?
The Potency was inconclusive: 17.8 µM [inhibitor, partial curve, poor fit].

Which Potency does the source give for `CC1(c2cccnc2)N(CC2CC2)C(=O)OC12CCN(C(=O)c1ccc(Oc3ccccc3)cc1)CC2` (configuration not stated) here?
Its Potency is “inactive”.

Which Potency does the source give for `Oc1ccc(NCCN2CCCC2)cc1` here?
Its Potency is inconclusive: 3.98 µM [inhibitor, full curve, poor fit].

Which Potency does the source give for `Cc1cccc(CCNc2ncnc3onc(-c4ccc(Cl)cc4)c23)c1` here?
Its Potency is inconclusive: 2.24 µM [inhibitor, full curve, poor fit].

Which Potency does the source give for `Cn1c(CNC(=O)C(Cc2ccccc2)NC(=O)c2ccccc2F)cc(=O)n(C)c1=O` (configuration not stated) here?
The Potency was inconclusive: 35.5 µM [inhibitor, single point].

Which Potency does the source give for `COc1ccc(C(=S)N2CCN(c3ccccc3C)CC2)cc1` here?
Its Potency is inconclusive: 28.2 µM [inhibitor, single point].

Which Potency does the source give for `CCCC(=O)n1nc(NCc2ccc(OC)cc2)nc1NCc1ccc(OC)cc1` here?
The Potency was inconclusive: 39.8 µM [inhibitor, single point].

Which Potency does the source give for `Cc1ccccc1Cn1c2ccccc2c2cnn(CC(=O)NC(C)CCc3ccccc3)c(=O)c21` (configuration not stated) here?
The Potency was inconclusive: 28.2 µM [inhibitor, partial curve, poor fit].

With `CSc1ccc(/C=N/Nc2ccc(Cl)c(Cl)c2)cc1` as the compound, how does the Potency read?
Its Potency is inconclusive: 39.8 µM [inhibitor, single point].

For `CNC(=O)N1CCC(n2c(C)cnc2-c2cccnc2)CC1`, which Potency is on record?
The Potency was “inactive”.

`CCOC(=O)c1ccc(N2C(=O)c3n[nH]c(C)c3C2c2ccccc2OC)cc1` (configuration not stated) was tested. Which Potency did it give?
Its Potency is inconclusive: 35.5 µM [inhibitor, partial curve, poor fit].

For `COc1ccc2nc(NC(=O)c3cc(-c4ccccc4)on3)sc2c1`, which Potency is on record?
The Potency was inconclusive: 39.8 µM [inhibitor, single point].

`CCOC(=O)CSc1nc2c(c(=O)[nH]c(=O)n2C)n1Cc1cccc(C)c1` was tested. Which Potency did it give?
The Potency was “inactive”.

For `c1ccc(N2CCSC2c2cccs2)cc1` (configuration not stated), which Potency is on record?
Its Potency is “inactive”.

For `CN(C)C(=O)CN1CCN(c2nc(-c3ccccc3)nc3ccccc23)CC1`, which Potency is on record?
Its Potency is “inactive”.

How did the Potency turn out when `CN(Cc1cc(C2CC2)n[nH]1)c1cc(C2CC(N)C2)nc(N)n1` (configuration not stated) was run?
Its Potency is inconclusive: 4.47 µM [inhibitor, full curve].

With `COCC(=O)N1CCN2C(=O)c3cc(-c4ccc(OC)cc4)ccc3NC(=O)[C@H]2C1` as the compound, how does the Potency read?
Its Potency is active: 31.6 µM.

Which Potency does the source give for `O=C(O)c1ccc(CNCCCN2CCOCC2)cc1` here?
Its Potency is “inactive”.

For `COc1cccc(CNS(=O)(=O)c2cc3[nH]c(=O)c(=O)[nH]c3cc2C)c1`, which Potency is on record?
Its Potency is inconclusive: 39.8 µM [inhibitor, single point].

For `CCOc1cc(/C=C2\N=C(C)OC2=O)cc(Cl)c1OCC(=O)OC`, which Potency is on record?
The Potency was inconclusive: 20 µM [inhibitor, partial curve, poor fit].

For `Cc1ccc(Nc2ncc(C(=O)N3CCN(c4ccc(F)cc4)CC3)c3ccccc23)cc1Cl`, which Potency is on record?
Its Potency is inconclusive: 31.6 µM [inhibitor, partial curve, poor fit].

With `Cc1c(-c2ccccc2)c(=O)oc2cc(OCC(=O)OC(C)C)ccc12` as the compound, how does the Potency read?
Its Potency is inconclusive: 31.6 µM [inhibitor, partial curve, poor fit].

Which Potency does the source give for `COCc1ncc(C)n1CCNC(=O)c1n[nH]c(=O)c2ccccc12` here?
Its Potency is inconclusive: 5.01 µM [inhibitor, partial curve].

`NC(=O)NC(CC(=O)NNC(=O)c1ccccn1)c1ccccc1Cl` (configuration not stated) was tested. Which Potency did it give?
The Potency was inconclusive: 3.98 µM [inhibitor, full curve, poor fit].

With `COCC1CN(C2CCC2)CC12CCN(C(=O)c1ccc(C)s1)CC2` (configuration not stated) as the compound, how does the Potency read?
The Potency was inconclusive: 28.2 µM [inhibitor, partial curve, poor fit].

Which Potency does the source give for `Cc1ccsc1CN(C(=O)c1oc2ccc(F)cc2c1C)C1CCS(=O)(=O)C1` (configuration not stated) here?
The Potency was inconclusive: 39.8 µM [inhibitor, single point].

With `O=c1cc(CSc2ccc3ccccc3n2)nc2ccccn12` as the compound, how does the Potency read?
Its Potency is “inactive”.

With `COC(=O)C1CCCCN1S(=O)(=O)c1c(F)cccc1F` (configuration not stated) as the compound, how does the Potency read?
Its Potency is “inactive”.

Which Potency does the source give for `CCc1noc(-c2ccn3c(CNC(=O)c4cc(F)cc(F)c4)nnc3c2)n1` here?
The Potency was active: 25.1 µM.

Which Potency does the source give for `CCCN1CCN(C(=O)CC2CCN(C(=O)c3ccc4nc(-c5ccc(C)cc5)oc4c3)CC2)CC1` here?
Its Potency is inconclusive: 7.08 µM [inhibitor, full curve, poor fit].

Which Potency does the source give for `O=S(=O)(C/C=C/c1ccccc1)Cc1coc(-c2ccc(F)cc2)n1` here?
The Potency was “inactive”.

For `CCOCCCNCc1cccc(Br)c1`, which Potency is on record?
The Potency was inconclusive: 35.5 µM [inhibitor, partial curve, poor fit].

For `COc1ccc(NC(=O)c2c(NCc3ccc(N(C)C)cc3)sc3c2CCC3)cc1`, which Potency is on record?
Its Potency is inconclusive: 12.6 µM [inhibitor, partial curve, poor fit].

With `O=C(c1ccc2nc(-c3ccc(F)cc3)cn2c1)N1CCC(F)CC1` as the compound, how does the Potency read?
The Potency was active: 28.2 µM.

`COc1ccc(-c2cc(N3CCC(NC(=O)Cc4ccc(F)cc4)CC3)n[nH]2)cc1` was tested. Which Potency did it give?
Its Potency is inconclusive: 12.6 µM [inhibitor, partial curve, poor fit].

Which Potency does the source give for `Cc1ncc(CC(=O)N2CCCC(C)(Cc3ccc4c(c3)OCO4)C2)c(=O)[nH]1` (configuration not stated) here?
The Potency was “inactive”.

Which Potency does the source give for `O=C(NCCCN1CCCc2ccccc21)C1Cn2cccc2C(=O)N1Cc1ccccc1` (configuration not stated) here?
Its Potency is “inactive”.

With `Cc1ccc(NC2=C(CC(=O)O)C(c3ccc(F)cc3)N(c3ccc(C)cc3)C2=O)cc1` (configuration not stated) as the compound, how does the Potency read?
The Potency was inconclusive: 22.4 µM [inhibitor, single point].

With `CCN(CC)CCOC(=O)c1ccc(NC(=O)c2nn(C)c3c2COc2ccccc2-3)cc1` as the compound, how does the Potency read?
Its Potency is inconclusive: 25.1 µM [inhibitor, single point].

`COc1ccc(C(=O)N2CC(Oc3ccccc3-c3nc(-c4ccccc4)no3)C2)cc1` was tested. Which Potency did it give?
Its Potency is active: 25.1 µM.
